Laboratory results reported in PubChem BioAssay AID1347120 (National Center for Advancing Translational Sciences (NCATS), 2019).
Hit rate of the full screen: of about 390,000 compounds, about 930 (0.24%) were called active. About 5% were inconclusive and are not listed. Calls come from the whole dose curve; as a rule, active = well fitted activation curve with a large enough effect; inconclusive = small, poorly fitted or top-dose-only effect; inactive = no such curve, though single readings can be large or run the other way. More than one record can exist for a structure, and the calls need not agree. The source holds more than one record for some entries. This list holds those alone. There may be further records. The records of an entry repeat one measurement in other runs, samples, wells, individuals or studies. Marks in square brackets tell the records apart. A, B and so on number the origins entry by entry.

Assay: qHTS for Suppressors of FUS Proteinopathy: Primary screen using FUS-linked yeast assay; note: nearly all actives have a fitted effect of over 55% in size
Conditions: S. cerevisiae FUS-expressing, OD600, 24 h; Potency: growth rescue; series mostly up to 76.6 µM
Source text: Several widespread neurodegenerative diseases, including Alzheimer disease, Huntington disease, Frontotemporal Lobar Degeneration (FTLD) and Amyotrophic Lateral Sclerosis (ALS), share a common pathological feature, namely accumulation of specific protein aggregates in diseased tissue. These diseases which is associated with protein misfolding (proteinopathies) have become increasingly problematic as the population ages and life expectancies are extended. Most proteinopathies are currently incurable, a situation confounded by the fact that the basis of neurodegeneration is generally poorly understood. There exists urgent and significant need to find therapeutics that can inhibit the toxicity associated with protein aggregation. […]
For this project, a yeast model of the FUS proteinopathies (a spectrum of neurodegenerative diseases that include ALS and a subtype of FTLD) was generated and employed. […] This model was validated to be suitable for quantitative HTS (qHTS) use for finding genetic or chemical factors that restore growth. […]
Four hundred fifty microliter of cultured yeast (in 20mL rich medium) provided by Dr. Shewmaker lab was incubated at 30C at 99% humidity for 3hr. […] Absorbance at 600nm was then read using the PerkinElmer ViewLux plate reader.
Potency is the fitted concentration of half-maximal effect.

Row | SMILES | Potency
1 | COc1ccc(S(=O)(=O)Nc2ccc(O)c(Sc3nc4ccccc4s3)c2)cc1 | inactive [sample A] and active: 25.1 µM [sample B]
